# Laboratory results as given in the supplement of paper PMC8728848.
# The list shows a part of the results.
# Key:
# Test in all cases: glycan array binding signal (z-score within array); higher = stronger binding
# Details in all cases: glycan notation: IUPAC condensed, linker removed
# [1] = biological target: GalNAc(b1-4)GlcNAc(b1-2)Man(a1-3)[GalNAc(b1-4)GlcNAc(b1-2)Man(a1-6)]Man(b1-4)GlcNAc(b1-4)GlcNAc
# Outline: (§1)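 The Consortium for Functional Glycomics database supplied 3228 glycan arrays, of which those lacking an available protein sequence were dropped. The binding signal, a within-array Z-score, was averaged across arrays of the same protein sequence and across linkers. Negative scores can be read as non-binding.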
# [2] = biological target: GalNAc(b1-4)GlcNAc(b1-3)GalNAc(b1-4)GlcNAc
# Outline: as §1
# GalNAc(b1-4)GlcNAc6S = biological target: GalNAc(b1-4)GlcNAc6S
# Outline: as §1
# GalNAc(b1-6)GalNAc = biological target: GalNAc(b1-6)GalNAc
# Outline: as §1
# GalNAc3S(b1-4)GlcNAc = biological target: GalNAc3S(b1-4)GlcNAc
# Outline: as §1
# GalNAc3S(b1-4)GlcNAc3S = biological target: GalNAc3S(b1-4)GlcNAc3S
# Outline: as §1
# [3] = biological target: GalNAc3S(b1-4)[Fuc(a1-3)]GlcNAc
# Outline: as §1
# GalNAc4S6S(b1-4)GlcNAc = biological target: GalNAc4S6S(b1-4)GlcNAc
# Outline: as §1
# GalNAc6S(b1-4)GlcNAc = biological target: GalNAc6S(b1-4)GlcNAc
# Outline: as §1
# Glc(a1-4)Glc = biological target: Glc(a1-4)Glc
# Outline: as §1
# [4] = biological target: Glc(a1-4)Glc(a1-4)Glc(a1-4)Glc
# Outline: as §1
# Glc(a1-6)Glc(a1-6)Glc = biological target: Glc(a1-6)Glc(a1-6)Glc
# Outline: as §1
# [5] = biological target: Glc(a1-6)Glc(a1-6)Glc(a1-6)Glc
# Outline: as §1
# Glc(b1-4)Glc = biological target: Glc(b1-4)Glc
# Outline: as §1
# Glc(b1-6)Glc = biological target: Glc(b1-6)Glc
# Outline: as §1
# GlcA(b1-3)Gal = biological target: GlcA(b1-3)Gal
# Outline: as §1
# GlcA(b1-3)GlcNAc = biological target: GlcA(b1-3)GlcNAc
# Outline: as §1
# GlcA(b1-6)Gal = biological target: GlcA(b1-6)Gal
# Outline: as §1
# [6] = biological target: GlcA3S(b1-3)Gal(b1-4)GlcNAc(b1-2)Man
# Outline: as §1
# [7] = biological target: GlcA3S(b1-3)Gal(b1-4)GlcNAc(b1-3)Gal(b1-4)Glc
# Outline: as §1
# [8] = biological target: GlcNAc(a1-3)Gal(b1-4)GlcNAc
# Outline: as §1
# [9] = biological target: GlcNAc(a1-4)Gal(b1-3)GlcNAc
# Outline: as §1
# [10] = biological target: GlcNAc(a1-4)Gal(b1-4)GalNAc
# Outline: as §1
# [11] = biological target: GlcNAc(a1-4)Gal(b1-4)GlcNAc
# Outline: as §1
# [12] = biological target: GlcNAc(a1-4)Gal(b1-4)GlcNAc(b1-3)Gal(b1-4)Glc
# Outline: as §1
# [13] = biological target: GlcNAc(a1-4)Gal(b1-4)GlcNAc(b1-3)Gal(b1-4)GlcNAc
# Outline: as §1
# [14] = biological target: GlcNAc(a1-4)Gal(b1-4)GlcNAc(b1-3)Gal(b1-4)GlcNAc(b1-3)Gal(b1-4)GlcNAc
# Outline: as §1
# [15] = biological target: GlcNAc(a1-4)Gal(b1-4)GlcNAc(b1-3)Gal(b1-4)[Fuc(a1-3)]GlcNAc(b1-3)Gal(b1-4)[Fuc(a1-3)]GlcNAc
# Outline: as §1
# [16] = biological target: GlcNAc(a1-6)Gal(b1-4)GlcNAc
# Outline: as §1
# [17] = biological target: GlcNAc(b1-2)Gal(b1-3)GalNAc
# Outline: as §1
# [18] = biological target: GlcNAc(b1-2)Man(a1-3)[GlcNAc(b1-2)Man(a1-6)]Man(b1-4)GlcNAc(b1-4)GlcNAc
# Outline: as §1
# [19] = biological target: GlcNAc(b1-2)Man(a1-3)[GlcNAc(b1-2)Man(a1-6)]Man(b1-4)GlcNAc(b1-4)[Fuc(a1-6)]GlcNAc
# Outline: as §1
# [20] = biological target: GlcNAc(b1-2)Man(a1-3)[GlcNAc(b1-4)][GlcNAc(b1-2)Man(a1-6)]Man(b1-4)GlcNAc(b1-4)GlcNAc
# Outline: as §1
# [21] = biological target: GlcNAc(b1-2)Man(a1-3)[GlcNAc(b1-4)][GlcNAc(b1-2)Man(a1-6)]Man(b1-4)GlcNAc(b1-4)[Fuc(a1-6)]GlcNAc
# Outline: as §1
# [22] = biological target: GlcNAc(b1-2)[GlcNAc(b1-4)]Man(a1-3)[GlcNAc(b1-2)Man(a1-6)]Man(b1-4)GlcNAc(b1-4)GlcNAc
# Outline: as §1
# [23] = biological target: GlcNAc(b1-2)[GlcNAc(b1-4)]Man(a1-3)[GlcNAc(b1-4)][GlcNAc(b1-2)Man(a1-6)]Man(b1-4)GlcNAc(b1-4)GlcNAc
# Outline: as §1
# [24] = biological target: GlcNAc(b1-2)[GlcNAc(b1-4)]Man(a1-3)[GlcNAc(b1-4)][GlcNAc(b1-2)[GlcNAc(b1-6)]Man(a1-6)]Man(b1-4)GlcNAc(b1-4)GlcNAc
# Outline: as §1
# [25] = biological target: GlcNAc(b1-2)[GlcNAc(b1-4)]Man(a1-3)[GlcNAc(b1-4)][GlcNAc(b1-2)[GlcNAc(b1-6)]Man(a1-6)]Man(b1-4)GlcNAc(b1-4)[Fuc(a1-6)]GlcNAc
# Outline: as §1
# [26] = biological target: GlcNAc(b1-2)[GlcNAc(b1-6)]Man(a1-6)[GlcNAc(b1-2)Man(a1-3)]Man(b1-4)GlcNAc(b1-4)GlcNAc
# Outline: as §1
# [27] = biological target: GlcNAc(b1-2)[GlcNAc(b1-6)]Man(a1-6)[GlcNAc(b1-2)Man(a1-3)]Man(b1-4)GlcNAc(b1-4)[Fuc(a1-6)]GlcNAc
# Outline: as §1
# [28] = biological target: GlcNAc(b1-2)[GlcNAc(b1-6)]Man(a1-6)[GlcNAc(b1-4)][GlcNAc(b1-2)Man(a1-3)]Man(b1-4)GlcNAc(b1-4)GlcNAc
# Outline: as §1
# GlcNAc(b1-3)Fuc = biological target: GlcNAc(b1-3)Fuc
# Outline: as §1
# GlcNAc(b1-3)Gal = biological target: GlcNAc(b1-3)Gal
# Outline: as §1
# [29] = biological target: GlcNAc(b1-3)Gal(b1-3)GalNAc
# Outline: as §1
# GlcNAc(b1-3)Gal(b1-4)Glc = biological target: GlcNAc(b1-3)Gal(b1-4)Glc
# Outline: as §1
binder,measurement,setting,value
Clrb (Mus musculus) (protein) ITGATKTEQIPVNKTYAACPQNWIGVENKCFYFSEYPSNWTFAQAFCMAQEAQLARFDNQDELNFLMRYKANFDSWIGLHRESSEHPWKWTDNTEYNNTIPIRGEERFAYLNNNGISSTRIYSLRMWICSKLNSYSLHCQTPFFPSGTKHHHHHHHHG,glycan array binding signal (z-score),[1],4.64
same,glycan array binding signal (z-score),[2],2.91
same,glycan array binding signal (z-score),GalNAc(b1-4)GlcNAc6S,3.08
same,glycan array binding signal (z-score),GalNAc(b1-6)GalNAc,0.452
same,glycan array binding signal (z-score),GalNAc3S(b1-4)GlcNAc,0.428
same,glycan array binding signal (z-score),GalNAc3S(b1-4)GlcNAc3S,-0.394
same,glycan array binding signal (z-score),[3],-0.447
same,glycan array binding signal (z-score),GalNAc4S6S(b1-4)GlcNAc,-0.332
same,glycan array binding signal (z-score),GalNAc6S(b1-4)GlcNAc,4.38
same,glycan array binding signal (z-score),Glc(a1-4)Glc,-0.439
same,glycan array binding signal (z-score),[4],-0.498
same,glycan array binding signal (z-score),Glc(a1-6)Glc(a1-6)Glc,-0.34
same,glycan array binding signal (z-score),[5],-0.192
same,glycan array binding signal (z-score),Glc(b1-4)Glc,-0.276
same,glycan array binding signal (z-score),Glc(b1-6)Glc,-0.417
same,glycan array binding signal (z-score),GlcA(b1-3)Gal,-0.227
same,glycan array binding signal (z-score),GlcA(b1-3)GlcNAc,-0.39
same,glycan array binding signal (z-score),GlcA(b1-6)Gal,-0.328
same,glycan array binding signal (z-score),[6],-0.463
same,glycan array binding signal (z-score),[7],-0.375
same,glycan array binding signal (z-score),[8],5.77
same,glycan array binding signal (z-score),[9],3.81
same,glycan array binding signal (z-score),[10],0.252
same,glycan array binding signal (z-score),[11],4.2
same,glycan array binding signal (z-score),[12],2.34
same,glycan array binding signal (z-score),[13],1.08
same,glycan array binding signal (z-score),[14],5.29
same,glycan array binding signal (z-score),[15],2.1
same,glycan array binding signal (z-score),[16],-0.406
same,glycan array binding signal (z-score),[17],0.667
same,glycan array binding signal (z-score),[18],-0.293
same,glycan array binding signal (z-score),[19],-0.258
same,glycan array binding signal (z-score),[20],1.62
same,glycan array binding signal (z-score),[21],4.51
same,glycan array binding signal (z-score),[22],-0.35
same,glycan array binding signal (z-score),[23],4.02
same,glycan array binding signal (z-score),[24],1.54
same,glycan array binding signal (z-score),[25],-0.007
same,glycan array binding signal (z-score),[26],-0.254
same,glycan array binding signal (z-score),[27],-0.494
same,glycan array binding signal (z-score),[28],3.49
same,glycan array binding signal (z-score),GlcNAc(b1-3)Fuc,1.92
same,glycan array binding signal (z-score),GlcNAc(b1-3)Gal,-0.241
same,glycan array binding signal (z-score),[29],-0.22
same,glycan array binding signal (z-score),GlcNAc(b1-3)Gal(b1-4)Glc,-0.237
